Measured values reported in PubChem BioAssay AID686979 (National Center for Advancing Translational Sciences (NCATS), 2013).
The campaign covered roughly 420,000 compounds. About 50,000 (12%) were called active. The inconclusive results got no clear call from the source; some entries with a clear call stand among them for comparison. The call rests on the fitted dose curve; in most records, active means well fitted inhibition curve with a large enough effect; inconclusive means small, poorly fitted or top-dose-only effect; inactive means flat fitted curve, though single readings scatter. Potencies of inconclusive entries are left out as doubtful fits.

Experiment: qHTS for Inhibitors of human tyrosyl-DNA phosphodiesterase 1 (TDP1): qHTS in cells in presence of CPT; further: nearly all actives have a fitted effect of over 55% in size
Settings: chicken DT40 Tdp1-/-;hTDP1 cells + 20 nM CPT, ATP luminescence, 48 h; activity change, negative = growth inhibition: at 46.2 µM (top of the series) unless noted
Method in brief: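 Chicken DT40 Tdp1-/- cells complemented with human TDP1, 400 cells/well, exposed to compounds plus 20 nM camptothecin for at least 48 h at 37 C; viability read as ATP content by CellTiter-Glo luminescence.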
On the % scale 0 is the no-effect control and ±100 the full control effect; potency means the concentration at half of the fitted maximal effect; tags describe the fitted curve by direction and shape.

Structure (SMILES)	Potency	activity change, negative = growth inhibition
COc1ccc(Cl)cc1NC(=O)CSc1nc2ccccc2c2nc(-c3ccccc3)nn12	inactive	–
O=C(Nc1ccc2nc(SCC(=O)N3CCc4ccccc43)sc2c1)c1cccc(F)c1	active: 3.66 µM	–
Cc1ccc(-n2ncc3c(=O)n(-c4ccc(C)c(C)c4)c(C)nc32)cc1	inconclusive [inhibitor, single point]	–
COc1c2c(cc3c1C(NC(N)=O)[N+](C)(C)CC3)OCO2 (stereo not drawn)	–	inactive: 10% [at 9.04 µM]
Cc1cccc(NC(=O)c2ccc3c(O)c(S(=O)(=O)c4ccccc4)c(=O)[nH]c3c2)c1C	inactive	–
Cc1ccc(OCC(=O)NNC(=O)Nc2ccc(Cl)cc2)c(Br)c1	inactive	–
O=C(C[C@H]1CC[C@H]2[C@@H](COC[C@@H](O)CN2S(=O)(=O)c2ccccc2)O1)N[C@@H]1CCN(Cc2ccccc2)C1	inactive	–
CC1(C)CC(NC(=O)c2cccc(Cl)c2)CC(C)(C)N1	inactive	–
Cc1ccc(C(=O)Nc2ccccc2)cc1S(=O)(=O)Nc1ccc(Br)cc1	inconclusive [inhibitor, single point]	–
FC(F)(F)c1cc(-c2ccccc2)nc(NCC2CCCO2)n1 (stereo not drawn)	inconclusive [inhibitor, single point]	–
COc1ccc(C(=O)Nc2ccc(N3CCN(C(=O)c4ccccc4)CC3)cc2)cc1[N+](=O)[O-]	active: 14.6 µM	–
O=S(=O)(NCCc1ccc(Cl)cc1)c1cccs1	inconclusive [inhibitor, single point]	–
O=C1C=C(Nc2ccc(O)cc2)CC(c2ccco2)C1 (stereo not drawn)	active: 20.6 µM	–
O=S(=O)(c1ccc(-c2cc(C(F)(F)F)on2)s1)N1CCN(c2ccccc2)CC1	inconclusive [inhibitor, single point]	–
c1ccc(CSc2nnnn2-c2cccc3ccccc23)nc1	–	inconclusive: -30.2% [inhibitor]
CCc1ccc(NC(=S)NC2CC3CCCC(C2)N3Cc2cccs2)cc1 (stereo not drawn)	active: 18.4 µM	–
CC1(C)Cc2c(cnn2-c2ccccc2)C(NC(=O)CCCN2CCCC2=O)C1 (stereo not drawn)	inactive	–
Cc1ccccc1NS(=O)(=O)c1cc(C(=O)NCCSC2CCCCC2)ccc1C	inconclusive [inhibitor, single point]	–
COc1ccccc1CNC(=O)C1CC(c2ccccc2[N+](=O)[O-])=NO1 (stereo not drawn)	inconclusive [inhibitor, partial curve]	–
CC(=O)Nc1ccc(S(=O)(=O)N(C)CC(=O)NNC(=O)Cc2nc3ccccc3n2C)cc1	inactive	–
CCN(C(=O)c1ccc(Cl)c([N+](=O)[O-])c1)c1ccccc1	–	inconclusive: -31.1% [inhibitor]
COC(=O)c1c(-c2ccc(OC)cc2)sc2cc(OC)c(OC)cc12	inconclusive [inhibitor, single point]	–

Structure (SMILES)	Potency	activity change, negative = growth inhibition
O=C(C1CCCN(S(=O)(=O)c2ccc([N+](=O)[O-])cc2)C1)N1CCCCC1 (stereo not drawn)	inconclusive [inhibitor, single point]	–
COc1cc(C(=S)N2CCOCC2)cc(OC)c1OS(=O)(=O)c1ccc(Cl)cc1	inconclusive [inhibitor, single point]	–
CCN(CC)S(=O)(=O)c1ccc(Cl)c(NC(=O)COc2ccc(OC)cc2[N+](=O)[O-])c1	inconclusive [inhibitor, single point]	–
NC(=O)c1ccc(Sc2nnc(-c3cccs3)n2CC2CCCO2)c([N+](=O)[O-])c1 (stereo not drawn)	inconclusive [inhibitor, single point]	–
Cc1ccc2nc(-c3cccc(Br)c3)c(Cc3cccc(Cl)c3)n2c1	inconclusive [inhibitor, partial curve, poor fit]	–
CCOC(=O)c1cnc2c(Cl)cc(Cl)cc2c1Nc1cc(C(=O)O)ccc1C	inconclusive [inhibitor, single point]	–
O=C1CC(=O)N(CCc2ccccc2)C(=O)N1CCc1ccccc1	inconclusive [inhibitor, single point]	–
C[C@@H](NCCCn1cnc2c(OCc3ccccc3)ncnc21)c1cccc2ccccc12	inconclusive [inhibitor, single point]	–
COc1ccc(-n2c(C)cc(C(=O)COC(=O)Cc3n[nH]c(=O)c4ccccc34)c2C)cc1	active: 11.6 µM	–
Cc1cccc2nc(Cn3c(=O)n(CCCC(=O)NCc4ccco4)c(=O)c4ccccc43)cc(=O)n12	inconclusive [inhibitor, single point]	–
Cc1ccc(OCc2cc(C(=O)N(C)C3CCCc4ccccc43)no2)cc1C (stereo not drawn)	inconclusive [inhibitor, partial curve, poor fit]	–
Cc1ccccc1NS(=O)(=O)c1ccc(C(=O)NNC(=O)c2ccccc2O)cc1	inconclusive [inhibitor, single point]	–
Cc1cc(C)c(C)c(S(=O)(=O)N(C)CCc2ccccn2)c1C	inconclusive [inhibitor, single point]	–
CCc1ccccc1NC(=O)Nc1cc(C(=O)NCc2cccc(F)c2)ccc1N1CCCC1	active: 3.26 µM	–
CC(=O)NC1C(Oc2cccc(C)c2)OC2COC(c3ccco3)OC2C1O (stereo not drawn)	inconclusive [inhibitor, partial curve, poor fit]	–
COCCCn1c(=N)c(C(=O)NCc2ccco2)cc2c(=O)n3cccc(C)c3nc21	inconclusive [inhibitor, single point]	–
COc1cc(C)c(CN2CCC3(CCC(CNC(=O)c4ccnn4C)O3)CC2)cc1C (stereo not drawn)	active: 16.4 µM	–
COc1cc2c(cc1OC)CN(C(=O)c1cc(S(=O)(=O)N3CCCCC3)ccc1Cl)CC2	active: 20.6 µM	–
CC1(C)CC(=S)Nc2ccccc2S1	inconclusive [inhibitor, partial curve]	–
Cc1oc(-c2cccc(Cl)c2)nc1CN1CCCC(C(=O)NCCc2ccc(Cl)cc2)C1 (stereo not drawn)	–	inconclusive: -20.4% [inhibitor]
OC(c1ccc(F)cc1)c1ncc(-c2cccc(C(F)(F)F)c2)[nH]1 (stereo not drawn)	inconclusive [inhibitor, single point]	–
